Reference: PubChem BioAssay AID686979 (National Center for Advancing Translational Sciences (NCATS), 2013)
Out of some 420,000 compounds screened, about 50,000 (12%) were called active. The inconclusive results got no clear call from the source; some entries with a clear call stand among them for comparison. Calls follow the shape of the dose curve; as a rule, active = well fitted inhibition curve with a large enough effect; inconclusive = small, poorly fitted or top-dose-only effect; inactive = flat fitted curve, though single readings scatter. Potencies of inconclusive entries are left out as doubtful fits.

Assay: qHTS for Inhibitors of human tyrosyl-DNA phosphodiesterase 1 (TDP1): qHTS in cells in presence of CPT; also: nearly all actives have a fitted effect of over 55% in size
Details: chicken DT40 Tdp1-/-;hTDP1 cells + 20 nM CPT, ATP luminescence, 48 h; activity change, negative = growth inhibition: at 46.2 µM (top of the series)
Procedure, shortened: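 Chicken DT40 Tdp1-/- cells stably complemented with human TDP1 were seeded at 400 cells/well in medium containing 20 nM camptothecin, exposed to pin-transferred compounds, and grown at 37 °C for at least 48 hr. Viability was read as ATP luminescence.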
% is scaled to controls: 0 for no effect and ±100 for the full control effect; potency is read from the fitted curve at half-maximal effect; tags tell the direction and shape of the fitted curve.

Structure (SMILES) | Potency | activity change, negative = growth inhibition
C=CCOc1ccc2c(c1)CCC1C2CCC2(C)C(O)C(O)CC12 (stereo not drawn) | inconclusive [inhibitor, partial curve, poor fit] | 
COc1ccc(NCc2n[nH]c(=O)c3ccccc23)cc1 | inconclusive [inhibitor, single point] | 
CC1=C(C(=O)Nc2ccc(C)cc2)C(c2ccc(C)o2)C2=C(CC(C)(C)CC2=O)N1 (stereo not drawn) |  | inconclusive: -31.1% [inhibitor]
COc1cccc(C(c2sc3nc(-c4ccco4)nn3c2O)N2CCCC2)c1 (stereo not drawn) | inactive | 
O=C(NC1=NCCS1)C1CCCCC1 | inactive | 
CCC1Nc2ncnc(N3CCN(c4ccccn4)CC3)c2N(Cc2ccc(Cl)cc2)C1=O (stereo not drawn) | inconclusive [inhibitor, single point] | 
Oc1ccc(Nc2nc(-c3ccc(O)cc3)cs2)cc1 | active: 11.2 µM | 
CCCCC1Cc2[nH]c(=S)[nH]c(=O)c2C(c2cccc3ccccc23)O1 (stereo not drawn) | inactive | 
CC1C(=O)N(Cc2cn(CCC3OCCCO3)nn2)CCS(=O)(=O)N1Cc1ccc(-c2cccc(N(C)C)c2)cc1 (stereo not drawn) | inconclusive [inhibitor, single point] | 
CC(C)C(=O)NC1CC(=O)N(c2ccc3c(c2)OCCO3)C1 (stereo not drawn) | inactive | 
Cc1nnc(N2CCN(c3ccc(Cl)cc3)CC2)c2c1nnn2Cc1ccc(F)cc1 | inconclusive [inhibitor, full curve, poor fit] | 
COc1ccccc1Cn1ccn(CC(=O)Nc2c(C)cc(C)cc2C)c(=O)c1=O | inactive | 
CC1CCCCN1C(=O)c1ccc2c(c1)N(Cc1ccc(Cl)cc1)C(=O)c1ccccc1S2=O (stereo not drawn) | inconclusive [inhibitor, single point] | 
CCOc1cc(N2CCOCC2)c(OCC)cc1NC(=O)c1ccccc1N1CCCC1=O | inconclusive [inhibitor, single point] | 
C/C(=N\NC(=S)NCc1ccccc1)C1CCCCC1 | active: 6.51 µM | 
CCCN(CCC)C(C)C(=O)NCC1(c2ccccc2)CCCC1 (stereo not drawn) | inconclusive [inhibitor, single point] | 
N=c1sc2ccccc2n1-c1ccccc1 | inconclusive [inhibitor, single point] | 
CCOc1ccc(/C=N/NC(=S)Nc2c(C)cccc2C)cc1 | active: 20.6 µM | 
C=CCc1cc(C(=O)N2CCCCC2)ccc1O | inconclusive [inhibitor, partial curve] | 
Cc1ccc(-n2ncc3c2CC(C)(C)CC3NC(=O)Cc2c(C)noc2C)cc1 (stereo not drawn) | inconclusive [inhibitor, partial curve] | 
CCN(CC)P1(=O)OC(c2cc(OC)c(OC)c(OC)c2)=Nc2c1c(C)nn2-c1ccccc1 (stereo not drawn) | inconclusive [inhibitor, single point] | 
COc1ccc(CC(=O)Oc2ccc(C)cc2Br)cc1S(=O)(=O)N1CCOCC1 | inactive | 
CN(C1CCCCC1)S(=O)(=O)c1ccc(F)c(C(=O)Nc2ccc(C(F)(F)F)cc2)c1 | active: 23.1 µM | 
CCOc1cccc(-c2cc(C(=O)Nc3ccon3)c3ccccc3n2)c1 | inconclusive [inhibitor, single point] | 
Cc1ccc(Cn2cc(CCC(=O)O)c3ccccc32)cc1 | inactive | 

Structure (SMILES) | Potency | activity change, negative = growth inhibition
Cc1ccc(C)c(NC(=O)CCC(=O)NN=C2CCCC2)c1 | inactive | 
O=S(=O)(c1ccc(F)cc1)N1CCN(CCc2ccccc2)CC1 | inactive | 
Cn1nnnc1SCC(=O)Nc1cc(C(C)(C)C)nn1-c1ccccc1 | inactive | 
CCN(CC)C(=O)CSc1nc2c(c(-c3cccnc3)c1C#N)CCCC2 | inconclusive [inhibitor, single point] | 
O=C(COc1ccc2c3c(c(=O)oc2c1)CCC3)c1ccc2c(c1)OCO2 | inconclusive [inhibitor, partial curve, poor fit] | 
C=C(C)CN1CCN(S(=O)(=O)c2ccc(C)c(N(C)S(=O)(=O)c3ccc(C)cc3)c2C)CC1 | active: 23.1 µM | 
O=c1cc2ncc(-c3[nH]ncc3[N+](=O)[O-])cn2[nH]1 | inactive | 
CSc1nnc(CCNC(=O)/C=C/c2cccc(F)c2)n1-c1ccc(F)cc1 | inconclusive [inhibitor, single point] | 
NC(=O)N/N=C/c1cn(-c2ccccc2)nc1-c1cccs1 | active: 16.4 µM | 
COc1cc(NC(C)=O)ccc1-c1cc2ccccc2oc1=O | inconclusive [inhibitor, single point] | 
O=C(Nc1cccc(Cl)c1)C1CCN(c2nc3ccccc3nc2C(F)(F)F)CC1 | inconclusive [inhibitor, single point] | 
O=c1cc(CN(Cc2ccccc2)Cc2ccccc2)c2c(ccc3ccccc32)o1 | active: 29.1 µM | 
CC(C)Oc1cccc(C(=O)NC(=S)NCc2cccnc2)c1 | inconclusive [inhibitor, single point] | 
CCC(=NNc1ccc([N+](=O)[O-])cc1[N+](=O)[O-])c1ccccc1 | inconclusive [inhibitor, single point] | 
O=C(c1ccccc1Br)N1CCC(c2nc3ccccc3s2)CC1 | inconclusive [inhibitor, single point] | 
C#C[C@]1(O)CCC2C3CCC4=Cc5oncc5CC4(C)C3CCC21C (stereo partly drawn) | inconclusive [inhibitor, single point] | 
COc1cccc(NC(=O)Cn2cnc3sc(C)c(S(=O)(=O)N4CCN(C)CC4)c3c2=O)c1 | inconclusive [inhibitor, single point] | 
Cc1c(-n2c(SCC(=O)NC(C)C)nc3ccccc3c2=O)c(=O)n(-c2ccccc2)n1C | inactive | 
CC(C)(C)NC(=O)C(c1ccc(C#N)cc1)n1c(=O)c(-c2ccco2)nc2ccccc21 (stereo not drawn) | inconclusive [inhibitor, single point] | 
Cc1ccc(NS(=O)(=O)c2ccc3c(c2)NC(=O)CO3)c(C)c1 | inconclusive [inhibitor, partial curve] | 
S=C(Nc1ccccc1)N1CCC(Cc2ccccc2)CC1 | active: 4.11 µM | 
CCCCCC/C(=N/O)c1ccccn1 | inconclusive [inhibitor, single point] | 
O=c1[nH]c(C2CCCN(S(=O)(=O)c3ccccc3)C2)nc2c1nnn2Cc1ccc2c(c1)OCCO2 (stereo not drawn) | inconclusive [inhibitor, single point] | 
CCN(c1ccccc1)S(=O)(=O)c1ccc(NC(=S)NC(=O)c2ccc(Br)o2)cc1 | inconclusive [inhibitor, single point] | 
Cc1nn(-c2ccccc2)c2c1C(O)n1c(nc3ccccc31)S2 (stereo not drawn) | active: 14.6 µM | 

Structure (SMILES) | Potency | activity change, negative = growth inhibition
O=C(c1ccc2c(c1)CCN2S(=O)(=O)c1ccc(Cl)cc1)N1CCN(c2ccccc2F)CC1 | active: 20.6 µM | 
COc1ccc(Nc2ncc(C(=O)N3CCN(c4ccc(OC)cc4)CC3)c3ccccc23)cc1 | active: 23.1 µM | 
Cc1cc2ncc(-c3ccc(Cl)cc3)c(N)n2n1 | inconclusive [inhibitor, partial curve, poor fit] | 
O=C(Nn1cnnc1)c1ccc(Cl)c([N+](=O)[O-])c1 | inactive | 
CC(C)C(=O)N1CCC1(C)C(=O)Nc1ccc2cn[nH]c2c1 (stereo not drawn) | inactive | 
CC(C)Oc1cccc(OCCN2C(=O)c3ccccc3C2=O)c1 | inactive | 
COc1cc(NC(=O)c2cccc(Cl)c2)c(OC)cc1NC(=O)CN1CCOCC1 | inconclusive [inhibitor, single point] | 
Cc1ccccc1Cn1c(=O)n(Cc2ccco2)c(=O)c2oc3ccccc3c21 | inactive | 
CCCCn1nnnc1C1(C)CCC(=O)N1CCc1ccccc1F (stereo not drawn) | inactive | 
Cc1nc2c(c(SCC(=O)Nc3ccccc3C(F)(F)F)n1)CCC2 | inconclusive [inhibitor, single point] | 
COC(=O)c1cc(S(=O)(=O)NCc2ccccc2OC)cn1C | inconclusive [inhibitor, single point] | 
CCOC(=O)Cc1cnc(NC(=O)CSc2nc(C(C)C)cc(=O)[nH]2)s1 | inactive | 
Cc1ccc2nc(NC(=O)[C@H](C)N3C(=O)C4CC=CCC4C3=O)sc2c1 (stereo partly drawn) | inactive | 
Cc1oc(-c2ccc(Cl)cc2)nc1CN1CCC(C(=O)N2CCN(Cc3ccccc3)CC2)CC1 | inconclusive [inhibitor, single point] | 
CCOc1ccccc1N1CC(c2nc3ccccc3n2CCCOc2ccccc2)CC1=O (stereo not drawn) | inactive | 
CCOc1ccccc1C(N)=O | inactive | 
CCCNc1nc2nc3ccccn3c(=O)c2cc1C(=O)NCCN1CCOCC1 | inactive | 
Cc1cccc2c(C(=O)Nc3ccc(Br)cc3)cc(-c3ccccn3)nc12 | inconclusive [inhibitor, single point] | 
COc1ccc(/C=N/NC(=O)c2ccn[nH]2)cc1COc1ccc(Cl)cc1 | inconclusive [inhibitor, single point] | 
CCOC(=O)C1CCN(C(=O)c2nn(-c3ccc(C)cc3)c(=O)c3c2c2ccccc2n3C)CC1 | inactive | 
COC(=O)C1=C(C)N(C2CCCCC2)C(=O)/C1=C\c1cccs1 | inconclusive [inhibitor, single point] | 
O=C(Nc1nnc(SCc2ccc(Cl)cc2)s1)C1CC(=O)N(Cc2ccccc2)C1 (stereo not drawn) | inconclusive [inhibitor, single point] | 
CC(=NN=C(C)c1ccc(O)cc1)c1ccc(O)cc1 | inconclusive [inhibitor, partial curve] | 
